For 29 compounds, activity change, negative = inhibition results are on record in PubChem BioAssay AID1745853 (National Center for Advancing Translational Sciences (NCATS), 2022).

What all share (test): Primary Screen for Target Class Profiling of Small Molecule Inhibitors of Methyltransferases
Assay [1] concerns the target Glycine N-methyltransferase (Homo sapiens) (UniProt Q14749). The settings on record: purified enzyme, MTase-Glo SAH luminescence; measured here: GNMT inhibition; at 40 µM; stronger effect = lower value. The method in brief: (§1)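 Each enzyme was reacted with SAM and its substrate, with compounds tested once at 40 uM; SAH formed was read by MTase-Glo luminescence.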
Assay [2] deals with Guanidinoacetate N-methyltransferase (Homo sapiens) (UniProt Q14353). Particulars: purified enzyme, MTase-Glo SAH luminescence; measured here: GAMT inhibition; at 40 µM; stronger effect = lower value. The method in brief: as §1
For assay [3], the target named is Histamine N-methyltransferase (Homo sapiens) (UniProt P50135). The settings on record: purified enzyme, MTase-Glo SAH luminescence; measured here: HNMT inhibition; at 40 µM; stronger effect = lower value. The essentials:
as §1

For assay [4], the target named is Nicotinamide N-methyltransferase (Homo sapiens) (UniProt P40261). The settings on record: purified enzyme, MTase-Glo SAH luminescence; measured here: NNMT inhibition; at 40 µM; stronger effect = lower value. The essentials: as §1
The target in assay [5] is Phenylethanolamine N-methyltransferase (Homo sapiens) (UniProt P11086). Particulars: purified enzyme, MTase-Glo SAH luminescence; measured here: PNMT inhibition; at 40 µM; stronger effect = lower value. The method in brief:
as §1

Some of the results follow. Further columns of the screen follow, without active or inactive calls.
% is scaled to controls: 0 for no effect and ±100 for the full control effect.

Consider `CC(=O)Nc1c2n(c3ccccc13)CC(C)(C(=O)NC1CCCC1)N(Cc1ccccc1C)C2=O` (stereo not given), for which the activity change, negative = inhibition in assay [1] was 4%; in assay [2] it was 3.56%; in assay [3], 0.792%; in assay [4], 9.49%; in assay [5], 4.13%.

With `Cc1ccccc1CSc1nnc2n(CCCOC(C)C)c(=O)c3ccccc3n12`, the activity change, negative = inhibition in assay [1] was -8.52%; in assay [2], 0%; in assay [3], 6.14%; in assay [4] it was -8.84%; in assay [5], 2.67%.

Consider `Cc1cnc(-c2ccccc2)n1C1CCN(S(C)(=O)=O)CC1`, for which the activity change, negative = inhibition was -5.59% in assay [1]; -7.01% in assay [2]; -2.15% in assay [3]; -13.8% in assay [4]; -7.71% in assay [5].

In the case of `CCCC1c2ccc(C)n2CCN1C(=O)NCc1ccc(C)cc1` (stereo not given), the activity change, negative = inhibition in assay [1] is 1.48%; in assay [2], 4.46%; in assay [3], 1.88%; in assay [4] it was 2.77%; in assay [5] it was -1.28%.

For the compound `COc1cccc(C(=O)Cn2nc3n(CC(C)C)c(=O)c4ccc(C(=O)NC5CCCC5)cc4n3c2=O)c1`, the activity change, negative = inhibition in assay [1] is 2.77%; in assay [2] it was 0.034%; in assay [3], 2.14%; in assay [4], 0.215%; in assay [5], -0.079%.

For the compound `CC1CCN(S(=O)(=O)c2ccc3c(ccn3CC(=O)NC(C)c3ccccc3)c2)CC1` (stereo not given), the activity change, negative = inhibition is -0.498% in assay [1]; 3.71% in assay [2]; -2.81% in assay [3]; 1.18% in assay [4]; 0.09% in assay [5].

Consider `CC(C)Cn1nc(C(=O)O)c2c1CCN(C(=O)CC(C)c1ccccc1)C2` (stereo not given), for which the activity change, negative = inhibition was -8.09% in assay [1]; -3% in assay [2]; -1.7% in assay [3]; -4.86% in assay [4]; 10.1% in assay [5].

For `CCOc1ccc(CCNC(=O)Cn2ccc3cc(S(=O)(=O)N4CCCC4)ccc32)cc1`, the activity change, negative = inhibition in assay [1] was found to be 4.56%; in assay [2] it was 4.39%; in assay [3], 8.83%; in assay [4], 4.06%; in assay [5] it was 3.44%.

In the case of `Cc1[nH]c2ccccc2c1CCNC(=O)c1cccs1`, the activity change, negative = inhibition in assay [1] is -5.29%; in assay [2], -24.4%; in assay [3] it was 4.5%; in assay [4], -35.3%; in assay [5], -7.87%.

Regarding `CC(=O)Nc1c2n(c3ccc(F)cc13)CC(C)(C(=O)NC1CCCC1)N(C1CCCCCC1)C2=O` (stereo not given), the activity change, negative = inhibition was -1.45% in assay [1]; 0.449% in assay [2]; -0.844% in assay [3]; -6.17% in assay [4]; -8.77% in assay [5].

On to `COc1ccc(OC)c(NC(=O)N2CCn3cccc3C2C)c1` (stereo not given), for which the activity change, negative = inhibition in assay [1] is -14.3%; in assay [2], -2.15%; in assay [3], -14.8%; in assay [4] it was -23.4%; in assay [5], -16.1%.

On to `COc1ccc(-c2nnc3n(Cc4ccc(C)cc4)c(=O)c4ccccc4n23)cc1OC`, for which the activity change, negative = inhibition in assay [1] is -1.12%; in assay [2], 4.7%; in assay [3], 3.24%; in assay [4], 7.67%; in assay [5], 0.215%.

With `O=c1[nH]ccc2cc(OC3CCNCC3)ccc12`, the activity change, negative = inhibition in assay [1] is 2.88%; in assay [2], 1.64%; in assay [3] it was -14.7%; in assay [4], -10.6%; in assay [5], -2.58%.

Turning to `NC1CCCCN(C(=O)c2ccc(Cn3cccn3)o2)C1` (stereo not given), the activity change, negative = inhibition in assay [1] was -3.82%; in assay [2], -10.6%; in assay [3], -5.7%; in assay [4], -1.3%; in assay [5], -11%.

`COc1ccccc1C(=O)NC[C@@H]1C=C(C)[C@H](CC(=O)NCc2ccccn2)C[C@H]1C(C)C`: the activity change, negative = inhibition is -4.33% in assay [1]; 1.59% in assay [2]; -2.49% in assay [3]; -4.88% in assay [4]; 1.1% in assay [5].

Consider `CC1(C(=O)NC2CCCCCC2)Cn2c(cc3occc32)C(=O)N1c1cccc(Cl)c1` (stereo not given), for which the activity change, negative = inhibition is -4.74% in assay [1]; 1.65% in assay [2]; -7.31% in assay [3]; -3.89% in assay [4]; -2.24% in assay [5].

Consider `CC(=O)Nc1ccc(-c2nnc3n(Cc4ccc(F)cc4)c(=O)c4ccccc4n23)cc1`, for which the activity change, negative = inhibition was -9.15% in assay [1]; 5.32% in assay [2]; 3.22% in assay [3]; 4.7% in assay [4]; 1.11% in assay [5].

For `CCOc1cc(CNC(=O)c2cc3n(n2)CC(C)(C(=O)NCc2ccccc2)N(C)C3=O)ccc1OC` (stereo not given), the activity change, negative = inhibition is 0.043% in assay [1]; 3.76% in assay [2]; -0.971% in assay [3]; -2.19% in assay [4]; -0.123% in assay [5].

Take `CCC(C)/C=C(C)/C=C/C1=CC2=C(Cl)C(=O)C(C)(OC(C)=O)C(=O)C2=CN1CCCC(=O)O` (stereo not given): the activity change, negative = inhibition is 0% in assay [1]; 4.33% in assay [2]; 3.08% in assay [3]; -10.1% in assay [4]; 0.165% in assay [5].

Consider `CCC(C)NC(=O)c1ccc2c(=O)n(C(C)C)c3nn(CC(=O)NC4CCCCC4)c(=O)n3c2c1` (stereo not given), for which the activity change, negative = inhibition in assay [1] came to 2.85%; in assay [2], 0%; in assay [3] it was 0.697%; in assay [4], 0.11%; in assay [5], 3.83%.

In the case of `O=C1CCC2(CCCO2)CCN1Cc1ccc(C(F)(F)F)c(F)c1` (stereo not given), the activity change, negative = inhibition was -1.04% in assay [1]; 2.22% in assay [2]; 3.58% in assay [3]; -3.09% in assay [4]; -16.6% in assay [5].

For `NS(=O)(=O)c1ccc(N2N=C(c3ccccc3)CC2c2ccccc2)cc1` (stereo not given), the activity change, negative = inhibition in assay [1] was 1.97%; in assay [2], -5.06%; in assay [3], 8.26%; in assay [4], -35.9%; in assay [5], -0.725%.

As for `CN1CCN(c2nc3c(c(=O)[nH]2)CCN(Cc2cccnc2)CC3)CC1`, the activity change, negative = inhibition in assay [1] was -6.95%; in assay [2] it was -12.5%; in assay [3], -5.77%; in assay [4], -1.57%; in assay [5] it was -9.34%.

Consider `CC1=C[C@@H](CNC(=O)COc2ccccc2)[C@H](C(C)C)C[C@H]1CC(=O)NCCN(C)C`, for which the activity change, negative = inhibition in assay [1] is -1.09%; in assay [2], 1.76%; in assay [3], -5.08%; in assay [4] it was -2.86%; in assay [5] it was -0.946%.

In the case of `CC(C)CCN1C(=O)c2cc3ccccc3n2CC1(C)C(=O)NC1CCCCC1` (stereo not given), the activity change, negative = inhibition was 0.947% in assay [1]; 2.31% in assay [2]; 4.57% in assay [3]; 6.14% in assay [4]; -0.463% in assay [5].

Turning to `COC(=O)C1(O)C(OC(C)=O)CCC2C3(CC(c4ccoc4)OC3=O)C(C)=CCC21C(=O)OC` (stereo not given), the activity change, negative = inhibition is 0.669% in assay [1]; 4.37% in assay [2]; 10.2% in assay [3]; -7.52% in assay [4]; 4.83% in assay [5].

Turning to `CC1(C(=O)NC2CCCCCCC2)Cn2c(cc3occc32)C(=O)N1CCCN1CCCCC1` (stereo not given), the activity change, negative = inhibition was 1.38% in assay [1]; 6.05% in assay [2]; -4.47% in assay [3]; 4.89% in assay [4]; -1.05% in assay [5].

Regarding `COc1ccc(S(=O)(=O)N2C[C@@H]3C[C@H](C2)c2c(NC(=O)c4ccccc4)ccc(=O)n2C3)cc1`, the activity change, negative = inhibition in assay [1] is -6.09%; in assay [2], -4.65%; in assay [3] it was -10.1%; in assay [4] it was -13.3%; in assay [5] it was -1.8%.

As to `C=CC[C@@H]1CC=C[C@@H](C)N1C(=O)c1cc(OC)ccc1OC1CCN(C(=O)C2CC2)CC1`, the activity change, negative = inhibition in assay [1] is -2.65%; in assay [2] it was -0.765%; in assay [3] it was -1.86%; in assay [4], -7.18%; in assay [5], 0.672%.
